Among all 390,000 compounds or so, about 17,000 (4.4%) were called active. The shares of active, inactive and inconclusive entries below differ from those in the screen. Calls come from the whole dose curve; as a rule, active = well fitted inhibition curve with a large enough effect; inconclusive = small, poorly fitted or top-dose-only effect; inactive = no such curve, though single readings can be large or run the other way. A potency beside an inconclusive call is a rough fit, not a confirmed value.
Each compound was assayed against Lysine-specific demethylase 4A (Homo sapiens) (UniProt O75164) (assay: qHTS Assay for Inhibitors of JMJD2A-Tudor Domain). Conditions: AlphaScreen JMJD2A-Tudor / H3K4me3 peptide binding; activity change, negative = inhibition: at 114 µM (top of the series).
UniProt O75164, sequence (O75164 whole entry, looked up, the tested form may be a part): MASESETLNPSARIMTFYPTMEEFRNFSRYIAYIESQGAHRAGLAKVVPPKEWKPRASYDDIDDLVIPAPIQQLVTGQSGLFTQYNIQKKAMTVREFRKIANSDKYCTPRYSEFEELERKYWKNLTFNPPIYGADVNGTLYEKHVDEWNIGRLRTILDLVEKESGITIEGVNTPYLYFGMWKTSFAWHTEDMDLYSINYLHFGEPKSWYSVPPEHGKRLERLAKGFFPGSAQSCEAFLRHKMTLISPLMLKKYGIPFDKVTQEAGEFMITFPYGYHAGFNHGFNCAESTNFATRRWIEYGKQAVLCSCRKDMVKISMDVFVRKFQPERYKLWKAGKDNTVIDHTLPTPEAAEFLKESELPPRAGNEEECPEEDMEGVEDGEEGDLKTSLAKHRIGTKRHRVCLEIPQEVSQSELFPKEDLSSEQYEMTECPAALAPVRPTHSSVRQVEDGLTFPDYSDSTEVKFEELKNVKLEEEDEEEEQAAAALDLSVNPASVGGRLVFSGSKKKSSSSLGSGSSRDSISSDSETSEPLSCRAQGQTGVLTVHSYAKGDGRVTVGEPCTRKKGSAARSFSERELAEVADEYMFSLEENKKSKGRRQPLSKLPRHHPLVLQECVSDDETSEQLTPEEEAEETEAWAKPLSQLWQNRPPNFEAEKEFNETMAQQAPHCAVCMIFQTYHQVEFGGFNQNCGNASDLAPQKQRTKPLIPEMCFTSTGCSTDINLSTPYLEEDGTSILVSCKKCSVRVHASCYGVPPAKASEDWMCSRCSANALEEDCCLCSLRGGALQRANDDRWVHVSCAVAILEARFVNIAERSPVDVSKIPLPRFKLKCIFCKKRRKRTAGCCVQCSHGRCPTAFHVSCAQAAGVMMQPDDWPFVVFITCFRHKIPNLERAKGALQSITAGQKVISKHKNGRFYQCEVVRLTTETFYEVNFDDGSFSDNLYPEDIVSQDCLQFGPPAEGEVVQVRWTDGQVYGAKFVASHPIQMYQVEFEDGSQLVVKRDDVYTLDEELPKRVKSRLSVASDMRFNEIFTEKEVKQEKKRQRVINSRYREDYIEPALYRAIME
% is set by controls: 0 for no effect and ±100 for the full control effect; potency is the fitted concentration of half-maximal effect; tags give direction and shape of the fitted curve.
Note: nearly all actives have a fitted effect of over 50% in size.

**Q.** How did the Potency turn out when `CCC(C)NS(=O)(=O)c1ccc(NC(=O)CNCc2cccs2)cc1` (stereo unspecified) was run?
**A.** active: 25.1 µM

**Q.** For `O=C(CCOc1ccc(F)cc1)Nc1nccs1`, which “activity change, negative = inhibition” value is on record?
**A.** inactive: -2.03%

**Q.** For `COc1cc(/C=N/NC(=S)Nc2cccc(S(=O)(=O)N(C)C)c2)ccc1O`, which Potency is on record?
**A.** inconclusive: 56.2 µM [inhibitor, partial curve]

**Q.** Which Potency does the source give for `O=C(O)C(C=C(Cl)Cl)N1CCOCC1` (stereo unspecified) here?
**A.** inconclusive: 89.1 µM [inhibitor, partial curve]

**Q.** How did the “activity change, negative = inhibition” value turn out when `OC(CNCC1CCCO1)COc1ccc(OCC(O)CNCC2CCCO2)cc1` (stereo unspecified) was run?
**A.** inactive: 5.6%

**Q.** `O=[N+]([O-])c1cccc(-c2n[nH]c(=S)n2-c2ccc(Br)cc2)c1` was tested. Which Potency did it give?
**A.** inconclusive: 63.1 µM [inhibitor, partial curve, poor fit]

**Q.** Which “activity change, negative = inhibition” value does the source give for `COc1ccc(C(=O)CSc2nnc(Cn3nnc4ccccc43)n2C)cc1` here?
**A.** inactive: -14.1%

**Q.** With `COc1ccc(C(=O)Oc2cc(-c3ccc4c(c3)OCO4)cc(=O)c3c(C)oc(C)c23)cc1` as the compound, how does the “activity change, negative = inhibition” value read?
**A.** inactive: -17.4%

**Q.** `Cc1cc(C(=O)N/N=C/c2cc([N+](=O)[O-])ccc2O)c2ccccc2n1` was tested. Which Potency did it give?
**A.** active: 25.1 µM

**Q.** How did the “activity change, negative = inhibition” value turn out when `CCOC(=O)c1c(C)[nH]c(C(=O)CC(=O)OC)c1C` was run?
**A.** inactive: -16%

**Q.** For `CCN1CCN(c2cc(C)c3cc(NC(=S)N4CCN(c5ccccc5F)CC4)ccc3n2)CC1`, which Potency is on record?
**A.** inconclusive: 56.2 µM [inhibitor, partial curve, poor fit]

**Q.** Which Potency does the source give for `CCOc1ccc(NC(=O)CN2C(=O)C3CCCN3C2=O)cc1` (stereo unspecified) here?
**A.** inconclusive: 22.4 µM [inhibitor, full curve]

**Q.** `CC1CCCCC1NC(=O)c1c(O)nc2ccccn2c1=O` (stereo unspecified) was tested. Which Potency did it give?
**A.** inconclusive: 28.2 µM [inhibitor, partial curve]

**Q.** Which Potency does the source give for `Cc1ccc(N=C2NC(=O)/C(=C\c3ccsc3)S2)c(C)c1` here?
**A.** inconclusive: 20 µM [inhibitor, full curve]

**Q.** How did the Potency turn out when `COc1cc(N(C)C)ccc1C=c1c2ccccc2n2c1cc(-c1ccccc1)[n+]2C` was run?
**A.** active: 17.8 µM

**Q.** With `CC1(C)CC(=O)c2cc(N=C/C(C(=O)c3ccccc3)=C(\O)c3ccccc3)c(=O)oc2C1` as the compound, how does the Potency read?
**A.** inconclusive: 14.1 µM [inhibitor, full curve]

**Q.** How did the Potency turn out when `CN(C)c1cc2c(c(N(C)C)c1)C(=O)c1ccccc1C2=O` was run?
**A.** inconclusive: 6.31 µM [inhibitor, full curve, poor fit]

**Q.** For `C/C(=N/NC(=O)c1ccccn1)c1c[nH]c2ccccc12`, which “activity change, negative = inhibition” value is on record?
**A.** inactive: -25.2%

**Q.** For `COc1ccc(OCC(=O)Nc2ccc(S(=O)(=O)Nc3cc(C)nc(C)n3)cc2)cc1`, which Potency is on record?
**A.** inconclusive: 89.1 µM [inhibitor, single point]

**Q.** How did the Potency turn out when `CCC(C)NCCCCOc1ccc(Br)cc1` (stereo unspecified) was run?
**A.** active: 1.58 µM

**Q.** `C[C@]12c3[nH]c4cc(-c5ccco5)ccc4c3CCN1C(=O)[C@@H](CC(=O)NCC13CC4CC(CC(C4)C1)C3)C[C@@H]2C(=O)N1CCOCC1` was tested. Which Potency did it give?
**A.** inconclusive: 50.1 µM [inhibitor, partial curve]

**Q.** For `CN1C(=O)c2ccccc2C(C(=O)NCc2ccco2)C1c1c[nH]c2ccccc12` (stereo unspecified), which Potency is on record?
**A.** inconclusive: 79.4 µM [inhibitor, single point]

**Q.** `Oc1ccccc1N=Nc1ccccc1O` was tested. Which Potency did it give?
**A.** active: 31.6 µM

**Q.** Which Potency does the source give for `CCN1CCN(c2cc3nc(C)n(Cc4ccccc4)c(=O)c3cc2NC(=O)c2ccccc2F)CC1` here?
**A.** inconclusive: 56.2 µM [inhibitor, partial curve]

**Q.** Which “activity change, negative = inhibition” value does the source give for `Clc1cccc(OCc2nc(-c3ccncc3)n[nH]2)c1` here?
**A.** inactive: -5.54%

**Q.** How did the activity change, negative = inhibition turn out when `O=C(O)CSCCc1ccccn1` was run?
**A.** inactive: -30.1% [at 11.4 µM]

**Q.** How did the Potency turn out when `O=[N+]([O-])c1cccc(N/N=C/c2ccc(N3CCOCC3)cc2)c1` was run?
**A.** active: 35.5 µM

**Q.** With `COc1ccc(-c2nc3scc(CCNC(=O)c4cc(OC)cc(OC)c4)n3n2)cc1` as the compound, how does the “activity change, negative = inhibition” value read?
**A.** inactive: 1.98%

**Q.** For `COc1cccc(N2CCN(Cc3nc4scc(-c5ccccc5)c4c(=O)[nH]3)CC2)c1`, which Potency is on record?
**A.** inconclusive: 25.1 µM [inhibitor, single point]

**Q.** With `CCOc1ccc2nc(SCC(=O)N(CC(C)C)c3c(N)n(Cc4ccccc4)c(=O)[nH]c3=O)[nH]c2c1` as the compound, how does the “activity change, negative = inhibition” value read?
**A.** inactive: -8.57%

**Q.** For `CCOC(=O)CCNC(=O)N1CCCC(CNS(=O)(=O)Cc2ccccc2)C1` (stereo unspecified), which Potency is on record?
**A.** inconclusive: 31.6 µM [inhibitor, single point]

**Q.** `Cc1cc(C)n2c(SCC(=O)NCc3ccc4c(c3)OCO4)nnc2n1` was tested. Which Potency did it give?
**A.** active: 79.4 µM

**Q.** For `CO[C@H]1/C=C/O[C@@]2(C)Oc3c(C)c(O)c4c(O)c(c5c(c4c3C2=O)NC2(CCN(CC(C)C)CC2)N=5)=NC(=O)/C(C)=C\C=C\[C@H](C)[C@H](O)[C@@H](C)[C@@H](O)[C@@H](C)[C@H](OC(C)=O)[C@@H]1C`, which Potency is on record?
**A.** inconclusive: 56.2 µM [inhibitor, partial curve]

**Q.** `COc1ccc(NC2CCCN(Cc3cccc4cnccc34)C2)cc1OC` (stereo unspecified) was tested. Which Potency did it give?
**A.** inconclusive: 56.2 µM [inhibitor, partial curve]

**Q.** Which Potency does the source give for `COc1ccc(NS(=O)(=O)c2ccc(NC(C)=O)cc2)c(OC)c1` here?
**A.** inconclusive: 20 µM [inhibitor, full curve]

**Q.** For `CCC1CCCCN1CCCNC(=O)CSc1nc2nc(C)c(Cc3ccc(C)cc3)c(C)n2n1` (stereo unspecified), which “activity change, negative = inhibition” value is on record?
**A.** inactive: -5.59%

**Q.** For `CSCCC(NS(=O)(=O)/C=C/c1ccccc1)C(=O)NCCc1ccc(S(N)(=O)=O)cc1` (stereo unspecified), which “activity change, negative = inhibition” value is on record?
**A.** inactive: -20.5%

**Q.** Which Potency does the source give for `O=[N+]([O-])c1cc(/C=N\Nc2nc(-c3ccccc3)cs2)ccc1O` here?
**A.** inconclusive: 39.8 µM [inhibitor, partial curve]

**Q.** With `COc1ccc(CCN(C)Cc2c(O)ccc3ccccc23)cc1OC` as the compound, how does the Potency read?
**A.** active: 50.1 µM

**Q.** With `Cc1ccccc1CNC(=O)c1ccc2nc(N3CCOCC3)sc2c1` as the compound, how does the Potency read?
**A.** inconclusive: 100 µM [inhibitor, partial curve, poor fit]

**Q.** For `O=C(Nc1ccc(Cl)cn1)c1cccc(S(=O)(=O)N2CCOCC2)c1`, which “activity change, negative = inhibition” value is on record?
**A.** inactive: -3.08%

**Q.** How did the Potency turn out when `CC(=O)Nc1nc(-c2cccc3ccccc23)cs1` was run?
**A.** inconclusive: 14.1 µM [inhibitor, full curve, poor fit]

**Q.** Which Potency does the source give for `CN(C)C(=S)Nc1cccc(-c2n[nH]c(=S)o2)c1` here?
**A.** inconclusive: 39.8 µM [inhibitor, single point]

**Q.** For `O=c1[nH]cnc2c1N1CCC2CC1`, which Potency is on record?
**A.** active: 28.2 µM

**Q.** For `COC(=O)COc1ccc(S(=O)(=O)Nc2ccc3c(c2)OCCO3)cc1C`, which “activity change, negative = inhibition” value is on record?
**A.** inactive: -21.5%

**Q.** Which Potency does the source give for `Cc1ncc(CO)c(CNc2ccc(Oc3ccccc3)cc2)c1O` here?
**A.** inconclusive: 56.2 µM [inhibitor, partial curve, poor fit]

Source: PubChem BioAssay AID504339 (National Center for Advancing Translational Sciences (NCATS), 2011)
